{"source": "paper PMC7819943", "about": "“Rice protein-binding microarrays: a tool to detect cis-acting elements near promoter regions in rice”", "note": "The other results are listed elsewhere or left out.", "data": [{"target": "T1, OsWOX13 (Oryza sativa, UniProt Q5QMM3 1-267)", "T1 sequence": "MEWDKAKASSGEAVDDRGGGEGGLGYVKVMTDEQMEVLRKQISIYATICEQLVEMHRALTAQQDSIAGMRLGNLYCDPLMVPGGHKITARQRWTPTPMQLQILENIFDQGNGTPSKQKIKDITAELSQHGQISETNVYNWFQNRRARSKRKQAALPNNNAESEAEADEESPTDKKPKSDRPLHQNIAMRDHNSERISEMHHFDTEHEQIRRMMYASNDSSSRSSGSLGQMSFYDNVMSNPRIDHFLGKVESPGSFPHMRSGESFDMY", "experiment": "protein-binding microarray (RPBM); PBS, 2% BSA, 51.3 ng/ul salmon testes DNA, 50 uM zinc acetate, 200 nM TF, 25 C, 1 h; high values mean tight binding", "settings": "protein: recombinant; tags: N-terminal polyhistidine and DsRed monomer fusion (pET32a); label: CyDye5-dUTP incorporated in the synthesized complementary strand; 3' TTTTT single-stranded linker to array surface; dsDNA, one strand shown", "method_in_brief": "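Transcription factors were each fused at the N-terminus to a polyhistidine tag plus DsRed and expressed in E. coli BL21-CodonPlus before Ni–NTA purification. Binding to a double-stranded custom Agilent array was carried out with 200 nM protein at 25 °C for 1 h in PBS, 2% BSA, salmon testes DNA and 50 µM zinc acetate. The binding signal is per-feature fluorescence intensity, in arbitrary units, on an Axon 4000B scanner.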", "values": [{"sequence": "TGAGATGTATAAATTTACTAAAATAGGAAAAGTAATACGGCGGAGTCACCTAGTGCAG", "binding signal": "3560 fluorescence intensity (a.u.)"}, {"sequence": "TTAAACTATATATCATTATATTTCTAGACCTAATGATTAACGGAGTCACCTAGTGCAG", "binding signal": "3400 fluorescence intensity (a.u.)"}, {"sequence": "GCGGTTCATTAGTGCGTGATTAATTAAGTATTAGCTATTTCGGAGTCACCTAGTGCAG", "binding signal": "10600 fluorescence intensity (a.u.)"}, {"sequence": "CCGCTGAGTGATGGACTAGTGAGGAGACTGCAGCCTCTCACGGAGTCACCTAGTGCAG", "binding signal": "8260 fluorescence intensity (a.u.)"}, {"sequence": "CTAAAGTCGATTGAATTAGGATCTGTGCAACTGGGCTTGGCGGAGTCACCTAGTGCAG", "binding signal": "3460 fluorescence intensity (a.u.)"}, {"sequence": "AAGAATTGTTTAATTGGGCCATAATATGATTACGGCATATCGGAGTCACCTAGTGCAG", "binding signal": "18600 fluorescence intensity (a.u.)"}, {"sequence": "AAAATACTAATTACACAGATTGTGTGTAAATTGTGAGACGCGGAGTCACCTAGTGCAG", "binding signal": "25200 fluorescence intensity (a.u.)"}, {"sequence": "TCTGAGATCAATCTATCAATCGTCAACCCTTTGCCTTTGTCGGAGTCACCTAGTGCAG", "binding signal": "13500 fluorescence intensity (a.u.)"}, {"sequence": "AGGATTGATGCAGCTGCAAGCACGCAGGATCATCCATTGGCGGAGTCACCTAGTGCAG", "binding signal": "3650 fluorescence intensity (a.u.)"}, {"sequence": "AGTGTAATTATGTTATAATTTACATGTAGTTTTAAATTTACGGAGTCACCTAGTGCAG", "binding signal": "16000 fluorescence intensity (a.u.)"}, {"sequence": "ACTAATTATACAGATTGCGTGTAAATTGTGAGTTGAATCTCGGAGTCACCTAGTGCAG", "binding signal": "28200 fluorescence intensity (a.u.)"}, {"sequence": "TGCAGCAAGATTGGCTACGCGATGTATTTGATAGGTGGATCGGAGTCACCTAGTGCAG", "binding signal": "9490 fluorescence intensity (a.u.)"}, {"sequence": "ATGGATATCAATAATTGCACGGGTAACCTTCTTTAATCATCGGAGTCACCTAGTGCAG", "binding signal": "7340 fluorescence intensity (a.u.)"}, {"sequence": "ACCTTCTTAAATTTTGATTTTGAAAATGAACCCCTCCAAACGGAGTCACCTAGTGCAG", "binding signal": "4080 fluorescence intensity (a.u.)"}, {"sequence": "CGGTTAATTCGGTTAACCGAGCCCAATGACCGAAATACCCCGGAGTCACCTAGTGCAG", "binding signal": "4360 fluorescence intensity (a.u.)"}, {"sequence": "TATCTAATTGGCCCAACTAAATCTTGCTTTGCTAGCTTGTCGGAGTCACCTAGTGCAG", "binding signal": "25400 fluorescence intensity (a.u.)"}, {"sequence": "GTTGTTTAATTACTTCTTTACCAAGTCAGTACATATTACTCGGAGTCACCTAGTGCAG", "binding signal": "3420 fluorescence intensity (a.u.)"}, {"sequence": "TGCTAACAGCATGACTGGTGATTGTGATGCATGACTGGAGCGGAGTCACCTAGTGCAG", "binding signal": "35600 fluorescence intensity (a.u.)"}, {"sequence": "GATTTTGACTGAGATATCAATAACTAATAGTTGCGCAAGCCGGAGTCACCTAGTGCAG", "binding signal": "10600 fluorescence intensity (a.u.)"}, {"sequence": "AATTTAAAATTTCAACTTTAAATTTGAAGTTAACTTTAAGCGGAGTCACCTAGTGCAG", "binding signal": "3610 fluorescence intensity (a.u.)"}, {"sequence": "TGGTCCTAATTTATGTAGCCTTGATCTGTAGCATCATCTCCGGAGTCACCTAGTGCAG", "binding signal": "6280 fluorescence intensity (a.u.)"}, {"sequence": "AAAGGAAAAGAAAATAATTGACGACGTTGAGTCGTTGACCCGGAGTCACCTAGTGCAG", "binding signal": "7270 fluorescence intensity (a.u.)"}, {"sequence": "ATAATAATTATATCATCCAGGCTAGTACGAACTATAGTAGCGGAGTCACCTAGTGCAG", "binding signal": "18300 fluorescence intensity (a.u.)"}, {"sequence": "TCGATTGATTGATTGATTCCTTGGAGAAGAAGAAGGAGGACGGAGTCACCTAGTGCAG", "binding signal": "36400 fluorescence intensity (a.u.)"}, {"sequence": "AGAGATAATTTGACCGGTCACCGCACGAAGAAAAGAGAAACGGAGTCACCTAGTGCAG", "binding signal": "4610 fluorescence intensity (a.u.)"}, {"sequence": "ATATTGTGATTGGTTAAGAAATAAAGATACGTTGAATGATCGGAGTCACCTAGTGCAG", "binding signal": "39200 fluorescence intensity (a.u.)"}, {"sequence": "CGCCAGCAGAATTAACAATCAAGGATTGCCTTTTCTTCCACGGAGTCACCTAGTGCAG", "binding signal": "7160 fluorescence intensity (a.u.)"}, {"sequence": "ATCTATAATTTTCTAATAATTTAACTAAAATATATGTAGTCGGAGTCACCTAGTGCAG", "binding signal": "22400 fluorescence intensity (a.u.)"}, {"sequence": "GCATTATTGTCCTAATTAATTACATGAATAAATGAAAAGACGGAGTCACCTAGTGCAG", "binding signal": "20400 fluorescence intensity (a.u.)"}, {"sequence": "AGCAAATTAATATGTGAATGATCACTTCTCTGAGGCCGGCCGGAGTCACCTAGTGCAG", "binding signal": "16400 fluorescence intensity (a.u.)"}, {"sequence": "AACTGATAGGTTACCCCACAAGTCGCGCACCGCACGGCACCGGAGTCACCTAGTGCAG", "binding signal": "5240 fluorescence intensity (a.u.)"}, {"sequence": "ATTAATCATTTATTAGCAAATGTTTACTGTAGCACAACATCGGAGTCACCTAGTGCAG", "binding signal": "8360 fluorescence intensity (a.u.)"}, {"sequence": "ATTTTGATAGTATTGATATCTCATTTGGAATCTTTATTGGCGGAGTCACCTAGTGCAG", "binding signal": "3820 fluorescence intensity (a.u.)"}, {"sequence": "CAATAACAGACATTCTAATATTTATTCTCTACTAGAGTATCGGAGTCACCTAGTGCAG", "binding signal": "8380 fluorescence intensity (a.u.)"}, {"sequence": "AACATGTTCTGCTGATTGTTTGGTCATCCTATACTCATTACGGAGTCACCTAGTGCAG", "binding signal": "8660 fluorescence intensity (a.u.)"}, {"sequence": "AACCAAATTTCTAATTTTAGCGCGAAGACCCACCTTATAGCGGAGTCACCTAGTGCAG", "binding signal": "8570 fluorescence intensity (a.u.)"}, {"sequence": "TAATAATTTTCACCAAGTGTGAATGGCTTGTCGACACGTCCGGAGTCACCTAGTGCAG", "binding signal": "5180 fluorescence intensity (a.u.)"}, {"sequence": "CGTGGCCATCAATTTGATCCCGTCACGTCTCCGCCCTCTTCGGAGTCACCTAGTGCAG", "binding signal": "4050 fluorescence intensity (a.u.)"}, {"sequence": "TCAGCCCTAATTAAGGAGTCTTAATTTTAGGTTGGCTACACGGAGTCACCTAGTGCAG", "binding signal": "18700 fluorescence intensity (a.u.)"}, {"sequence": "TCTTGTTAAAATTTGATTAGAGGAGATGATCAATTCCTTCCGGAGTCACCTAGTGCAG", "binding signal": "13900 fluorescence intensity (a.u.)"}, {"sequence": "TTCACAAATTTTGATGCGATGATTAGCTAAGGCATGTTCGCGGAGTCACCTAGTGCAG", "binding signal": "23500 fluorescence intensity (a.u.)"}, {"sequence": "ATCTTCAACTTTAAATTTAAAACTGATTTTGAACTTTCTTCGGAGTCACCTAGTGCAG", "binding signal": "7840 fluorescence intensity (a.u.)"}]}]}
